# According to the supplement of paper PMC7826260:
# The other results are listed elsewhere or left out. The data describe in vitro nicking of single-stranded DNA by Rep domains at 3 µM enzyme and 37 °C for 1 h; the strands have 90 letters, of which the middle is given. Numbers give uncut DNA relative to the enzyme-free pool, as log2; strong cutting gives strongly negative numbers. There is no active / inactive call. Counts are relative to all reads, so uncut sequences can rise above 0 when many others are cut.
# Assays:
# Assay in all cases: uncleaved DNA left, log2 of reads against the no-enzyme library (log2 ratio); higher = less cleavage (more negative = more Rep cleavage of the k-mer); sequences stand for … in CTCGTCCG…ACCGGAGA
# [1] = test system: T1, Rep nickase domain of Muscovy duck circovirus
# T1 sequence (residues 1-111 of Rep, tag left off): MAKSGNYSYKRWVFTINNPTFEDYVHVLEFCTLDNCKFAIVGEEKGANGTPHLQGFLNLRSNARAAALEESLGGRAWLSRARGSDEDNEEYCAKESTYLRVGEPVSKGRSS
# Experimental: (§1)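 A pool of 90-nt single-stranded DNAs with seven random bases just before the constant AC of the nick site (name = the seven bases) was cut by 3 µM recombinant His6-SUMO-tagged Rep nickase domain (300 nM DNA, 50 mM HEPES pH 8.0, 50 mM NaCl, 1 mM MnCl2, 1 h, 37 °C, three replicates). Uncut DNA was amplified and sequenced.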
# [2] = test system: T2, Rep nickase domain of banana bunchy top virus
# T2 sequence (residues 1-94 of Rep, tag left off): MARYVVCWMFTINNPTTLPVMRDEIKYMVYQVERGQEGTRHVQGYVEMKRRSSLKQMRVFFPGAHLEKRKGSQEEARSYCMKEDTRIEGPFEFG
# Experimental: as §1
# [3] = test system: T3, Rep nickase domain of cabbage leaf curl virus
# T3 sequence (residues 1-116 of Rep, tag left off): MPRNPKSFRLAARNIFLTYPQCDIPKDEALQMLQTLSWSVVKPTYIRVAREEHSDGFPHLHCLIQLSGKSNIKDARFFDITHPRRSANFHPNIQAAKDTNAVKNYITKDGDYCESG
# Experimental: as §1
# [4] = test system: T4, Rep nickase domain of chickpea chlorotic dwarf virus
# T4 sequence (residues 1-124 of Rep, tag left off): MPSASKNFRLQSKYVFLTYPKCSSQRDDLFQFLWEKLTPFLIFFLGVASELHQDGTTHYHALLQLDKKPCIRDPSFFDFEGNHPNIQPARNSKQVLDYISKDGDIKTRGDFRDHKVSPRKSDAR
# Experimental: as §1
# [5] = test system: T5, Rep nickase domain of faba bean necrotic yellows virus
# T5 sequence (residues 1-98 of Rep, tag left off): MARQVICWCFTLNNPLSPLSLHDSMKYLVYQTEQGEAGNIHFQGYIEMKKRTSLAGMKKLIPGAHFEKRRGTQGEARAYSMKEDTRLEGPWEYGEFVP
# Experimental: as §1
# [6] = test system: T6, Rep nickase domain of maize striate mosaic virus
# T6 sequence (residues 1-117 of Rep, tag left off): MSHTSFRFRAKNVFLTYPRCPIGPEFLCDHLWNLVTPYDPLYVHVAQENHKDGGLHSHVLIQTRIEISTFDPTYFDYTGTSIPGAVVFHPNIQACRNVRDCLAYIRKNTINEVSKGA
# Experimental: as §1
# [7] = test system: T7, Rep nickase domain of porcine circovirus 2
# T7 sequence (residues 2-116 of Rep, tag left off): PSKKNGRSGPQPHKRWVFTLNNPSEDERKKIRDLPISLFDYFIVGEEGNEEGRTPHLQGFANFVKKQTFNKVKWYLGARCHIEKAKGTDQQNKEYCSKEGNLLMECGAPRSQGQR
# Experimental: as §1
# [8] = test system: T8, Rep nickase domain of tomato golden mosaic virus
# T8 sequence (residues 1-124 of Rep, tag left off): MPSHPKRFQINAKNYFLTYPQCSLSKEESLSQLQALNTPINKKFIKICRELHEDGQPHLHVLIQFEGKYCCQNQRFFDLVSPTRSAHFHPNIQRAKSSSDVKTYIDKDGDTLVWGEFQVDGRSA
# Experimental: as §1
# [9] = test system: T9, Rep nickase domain of tomato yellow leaf curl virus
# T9 sequence (residues 1-136 of Rep, tag left off): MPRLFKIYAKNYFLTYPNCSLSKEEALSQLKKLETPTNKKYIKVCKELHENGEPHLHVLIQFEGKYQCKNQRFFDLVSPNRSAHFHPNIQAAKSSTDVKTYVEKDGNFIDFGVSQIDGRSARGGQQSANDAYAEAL
# Experimental: as §1
# [10] = test system: T10, Rep nickase domain of wheat dwarf virus
# T10 sequence (residues 1-137 of Rep, tag left off): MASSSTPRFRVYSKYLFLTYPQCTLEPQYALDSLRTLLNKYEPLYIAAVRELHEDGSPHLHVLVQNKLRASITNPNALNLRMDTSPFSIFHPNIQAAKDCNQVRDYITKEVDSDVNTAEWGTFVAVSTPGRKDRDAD
# Experimental: as §1
Sequence,uncleaved DNA left (log2) [1],uncleaved DNA left (log2) [2],uncleaved DNA left (log2) [3],uncleaved DNA left (log2) [4],uncleaved DNA left (log2) [5],uncleaved DNA left (log2) [6],uncleaved DNA left (log2) [7],uncleaved DNA left (log2) [8],uncleaved DNA left (log2) [9],uncleaved DNA left (log2) [10]
CGTGGCG,0.0991,0.0784,-0.458,0.603,0.145,-0.153,0.19,0.055,0.289,0.0733
TAGACGC,0.0968,0.0862,0.0329,0.0568,-0.0865,-0.332,0.0319,-0.159,0.11,0.0737
CCACAAG,-0.0381,-0.0106,-0.942,-0.405,0.0326,-0.922,0.189,-0.0344,0.0585,0.00721
GGTGGAT,0.179,0.144,0.57,1.73,0.102,2.12,0.245,0.191,0.185,0.277
GTTTGAG,0.149,0.186,-0.444,-0.374,0.0971,-0.871,0.183,0.0876,0.132,0.0062
TGCGTTG,-0.0609,-0.148,-0.0921,0.285,0.0105,1.01,0.0969,0.0655,-0.139,-0.0256
AGCTCGC,0.0617,0.0557,-0.241,-0.179,0.0146,-0.709,-0.0191,-0.114,-0.00851,0.0546
TGGTTTA,-0.129,-0.0897,0.22,-0.0806,0.0517,0.826,-0.107,-0.0196,0.00831,0.0866
GCACGCC,-0.0803,-0.111,-0.253,-0.0418,-0.127,-0.422,0.0162,-0.0357,-0.123,-0.11
TCAGAAC,0.0462,0.0838,0.23,-0.209,0.131,-0.26,0.142,0.00521,-0.0179,0.0245
AAGGTAG,0.109,0.0139,-0.326,-0.262,0.135,-0.73,0.384,0.159,-0.0169,0.0414
GGCGGCA,0.0554,0.0269,0.539,1.39,0.0111,1.96,0.185,0.0465,-0.0603,-0.102
TGTTTTG,0.175,0.0583,-0.333,-0.394,0.238,-0.997,0.179,0.0255,0.129,0.0638
ATCGCTT,-0.0149,-0.129,-0.186,-1.92,-0.0623,-0.585,-0.058,-0.0452,-0.0244,-0.0666
TGCCGGT,-0.101,-0.119,0.175,0.301,-0.167,0.479,-0.0127,-0.2,-0.139,-0.0649
TGGCAAG,0.0562,0.0472,-0.578,-0.238,0.0213,-0.849,0.215,0.00147,-0.0144,-0.0227
ATGGTAT,0.0758,0.0874,0.27,1.44,-0.0872,1.74,0.149,0.144,-0.0231,0.0936
CGCGGGT,-0.129,-0.167,-0.051,-0.0582,-0.189,0.244,-0.0911,-0.141,-0.258,-0.375
CGGTCCT,-0.388,-0.128,0.00986,-0.704,-0.12,0.503,-1.36,-0.101,-0.0931,-0.0362
GTTCCGA,-0.0517,-0.097,0.239,0.933,-0.105,1.53,0.00889,-0.0539,-0.0537,-0.0568
CTGGGTG,0.0289,-0.0636,-0.341,-0.471,0.082,-0.726,0.0738,-0.0088,0.0121,-0.068
GACTTTT,-2.86,-2.52,-0.157,-1.68,-0.295,0.696,-3.01,-0.206,-0.0982,-0.185
CGCAACG,-0.0939,-0.0541,-0.784,-0.451,-0.0345,-0.866,0.0479,-0.132,-0.0974,-0.161
GAGATAA,0.106,0.157,0.486,1.2,0.0581,1.56,0.0504,0.16,0.244,0.0717
GGTACCA,0.00331,0.0808,0.363,1,-0.0499,1.46,0.0367,-0.0757,0.0307,0.142
GTGCGGG,-0.0547,-0.0152,-0.069,0.141,-0.0948,-0.206,0.0145,-0.111,0.0358,-0.154
ATTGGAG,0.113,0.117,-0.245,0.0676,0.215,-0.775,0.39,0.0922,0.0887,0.162
AGGGTTA,0.0285,-0.0275,0.205,0.453,-0.0171,1.11,-0.00832,0.031,-0.127,0.0733
ATCAGCA,0.0448,0.0908,-0.419,-1.03,0.0813,-1.06,-0.0591,0.0709,0.167,0.00889
TCAGGCC,-0.0723,-0.00536,0.111,0.451,-0.0657,0.118,-0.0763,0.0286,-0.11,0.0114
